Results taken from publication PMC10668032.
The list shows a part of the results. At the low end of the ranking the order means little.

What follows are sequences tested against SIX1-Q177R homeodomain (UniProt Q15475) (assay: universal protein binding microarray). Conditions: Universal all-10-mer PBM (8x60K, AMADID 030236), 300 nM GST-tagged protein, Alexa Fluor 488 anti-GST; buffer, salt, pH and temperature not stated; high values mean tight binding; most listed sequences are background and not binding sites; double strand, one strand shown.

| Sequence | binding signal |
| --- | --- |
| AGAAGACT | -0.216 E-score |
| TATAGGAA | -0.0204 E-score |
| AGTGTCAT | 0.462 E-score |
| AGTATGAT | 0.0566 E-score |
| AACTCGTG | 0.082 E-score |
| CCCCATAA | 0.127 E-score |
| ATTACAAG | -0.0386 E-score |
| AGGCTTCG | -0.199 E-score |
| TCATGCAA | -0.0432 E-score |
| CTTCTGTC | -0.239 E-score |
| GATATAGA | -0.193 E-score |
| GGTTCCAC | -0.0424 E-score |
| AAGAGTCC | -0.159 E-score |
| CTCTTCTA | 0.0592 E-score |
| AAGCAGCT | -0.199 E-score |
| AAGACCTG | -0.086 E-score |
| GTACCACA | -0.0682 E-score |
| ATTGGGTA | 0.00049 E-score |
| CCGTGAAA | -0.104 E-score |
| GCCCGACA | 0.102 E-score |
| ACCGAAGC | 0.031 E-score |
| ACCTAAGG | 0.0521 E-score |

| Sequence | binding signal |
| --- | --- |
| GACCGCCA | -0.121 E-score |
| ATAGTAGC | 0.0458 E-score |
| ATTCCGAG | -0.0776 E-score |
| AATGGAGT | 0.164 E-score |
| ACAAATTC | 0.00838 E-score |
| AGAAGACG | -0.174 E-score |
| GAATGGGC | -0.11 E-score |
| CATTGTCA | -0.0285 E-score |
| ACTGTTTC | -0.0755 E-score |
| CTCACTGA | -0.105 E-score |
| CTCATAGA | -0.191 E-score |
| CTAGAAAA | -0.279 E-score |
| CTGCGGTA | 0.0698 E-score |
| TACATACA | 0.125 E-score |
| CCAAAATA | -0.00549 E-score |
| ATGAACAT | -0.325 E-score |
| ACCTATGA | -0.0518 E-score |
| ATCTGGTG | 0.292 E-score |
| AGCATGTA | -0.207 E-score |
| AGAACTTG | -0.299 E-score |
| GACACGAA | 0.331 E-score |
| GGCATCAC | -0.057 E-score |

| Sequence | binding signal |
| --- | --- |
| AAAGACAA | -0.273 E-score |
| GCATGCTA | -0.134 E-score |
| ACTAGTGC | -0.178 E-score |
| CACTGGTC | 0.0705 E-score |
| GTCTATAA | 0.113 E-score |
| CTGCCCGA | 0.139 E-score |
| CAGGCAAA | -0.164 E-score |
| CGTCAGGA | 0.0933 E-score |
| CAGTTCCG | -0.187 E-score |
| AACGCATA | 0.0663 E-score |
| AGATGTAG | -0.0696 E-score |
| CATCGTGA | -0.122 E-score |
| AAGCGCTC | -0.06 E-score |
| ACCCCGCG | 0.254 E-score |
| CTAGATTA | -0.115 E-score |
| CCTGGATA | -0.056 E-score |
| GTGTCTGA | 0.364 E-score |
| GGGTACTA | 0.224 E-score |
| CGAGGTGC | 0.127 E-score |
| TAAGACGA | -0.198 E-score |
| AATAACCA | -0.273 E-score |
| AACTTGTG | 0.0347 E-score |

| Sequence | binding signal |
| --- | --- |
| AAATGTCG | -0.184 E-score |
| GACCAGAC | -0.195 E-score |
| TTGGAAAA | -0.0791 E-score |
| AGCTGTAA | -0.295 E-score |
| ACTCCCCC | 0.21 E-score |
| GACGGCAC | -0.135 E-score |
| CTCTGAAA | -0.0336 E-score |
| AATGAATT | 0.0485 E-score |
| CGGCACAG | -0.172 E-score |
| ACGAACGG | -0.0186 E-score |
| GATCGCTA | -0.0743 E-score |
| GCTAAGGA | -0.164 E-score |
| CATGGTAG | -0.0704 E-score |
| GGGGTCGA | 0.298 E-score |
| CCTATCAC | 0.173 E-score |
| AGTCAGCG | -0.146 E-score |
| CGAACCCG | 0.112 E-score |
| AATCTGAC | 0.17 E-score |
| CTAAGAGA | -0.177 E-score |
| ACTCAGTG | 0.135 E-score |
| CGCAGCAG | -0.208 E-score |
| AACAGGAA | -0.0144 E-score |

| Sequence | binding signal |
| --- | --- |
| CGGCTCAA | 0.0565 E-score |
| GATCCCAC | 0.24 E-score |
| ACACACAA | 0.244 E-score |
| CCAGTTCG | -0.0554 E-score |
| ATTGCTCC | -0.213 E-score |
| ACGCTTTG | 0.0347 E-score |
| ACATCCAG | -0.0413 E-score |
| ATTCCTGC | 0.0939 E-score |
| CAATACAA | -0.0858 E-score |
| AGCTAAGA | -0.202 E-score |
| ATGATATC | -0.0815 E-score |
| AAACGAAT | -0.287 E-score |
| GCTCAAAA | -0.16 E-score |
| AGACTGAT | -0.0904 E-score |
| CGAGCCGC | -0.157 E-score |
| CAAGGACA | 0.194 E-score |
| AGGGCGAG | -0.0475 E-score |
| AAGCCCGA | -0.126 E-score |
| GCAGAAGC | -0.165 E-score |
| CATGTACC | -0.0151 E-score |
| AACGTGGC | -0.161 E-score |
